Results reported in PubChem BioAssay AID1240 (Sanford-Burnham Center for Chemical Genomics, 2008).
The whole screen tested about 50,000 compounds, of which about 800 (1.6%) showed an effect of 50% or more. Some of the results follow.

target: Bcl-2-like protein 10 (Homo sapiens) (UniProt Q9HD36); assay: Phenotype converters, Bcl-B/TR3 peptide binding displacement, primary biochemical FP (AID 1240); conditions: GST-Bcl-B / FITC-TR3 peptide fluorescence polarization; stronger effect = higher value; compound at 3.75 mg/L;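 also: 0% = Bcl-B with tracer peptide and DMSO and 100% = tracer peptide lacking Bcl-B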
Sequence of UniProt Q9HD36 (Q9HD36 whole entry, looked up): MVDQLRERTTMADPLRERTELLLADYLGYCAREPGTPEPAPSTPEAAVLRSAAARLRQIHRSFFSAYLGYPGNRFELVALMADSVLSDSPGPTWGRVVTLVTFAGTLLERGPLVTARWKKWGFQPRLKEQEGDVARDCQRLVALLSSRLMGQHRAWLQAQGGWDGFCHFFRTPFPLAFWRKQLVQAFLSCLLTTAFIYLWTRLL

Structure (SMILES) | displacement [%]
C=CCc1cccc(/C=N\NC(=O)CN2CCN(Cc3ccccc3)CC2)c1O | -18.1
CN1CCN(c2ccc([N+](=O)[O-])cc2C(=O)Nc2ccc(Cl)c(Cl)c2)CC1 | 7.1
O=C(Nc1ccccc1Br)c1ccc(OC(F)F)cc1 | 10.1
COC(=O)C1=C(C)NC(C)=C(C(=O)OC)C1c1c(F)cccc1Cl | -0.4
CCOc1ccccc1/C=C/C(=O)c1ccc(Br)cc1 | 10.2
O=C(CSc1nc2ccccc2[nH]1)c1ccc2c(c1)Cc1ccccc1-2 | -9.4
Cc1ccc(OCC(O)Cn2c3ccccc3c3ccccc32)cc1C (stereo not given) | 15.9
Cc1ccc(NC(=O)c2ccc3c(c2)OCO3)cc1[N+](=O)[O-] | 4.9
O=C(Nc1ccc(Cl)c(Cl)c1)Nc1nnc(CCc2ccccc2)s1 | 5.6
CCOC(=O)c1c(NC(=O)c2ccc(S(=O)(=O)N3CCCCC3)cc2)sc(C)c1C | -4.5
O=C(/C(=N\O)n1cncn1)c1ccc(Cl)cc1Cl | 9.2
COc1ccc(Cl)cc1NC(=O)COc1ccc(C)cc1Br | 3.1
CCN(CC)c1nc(-c2ccccc2O)nc2ccccc12 | -2.1
O=C(c1ccccc1)N1CCN(CCN2C(=O)c3cccc4cccc(c34)C2=O)CC1 | -12
CCOC(=O)C1CCN(Cn2nc(-c3ccc(C)cc3)oc2=S)CC1 | -17.9
O=C1NC(=O)/C(=C\c2cccc(Cl)c2)S1 | -4.9
COc1ccc2oc(=O)c(-c3csc(Nc4ccccc4C)n3)cc2c1 | 1.1
COc1cccc(N2C(=O)/C(=C/c3ccc4c(c3)OCO4)SC2=S)c1 | 7.4
Cc1ccc(C(=O)NC(Cc2c[nH]c3ccccc23)C(=O)O)o1 (stereo not given) | 13.6
CCOC(=O)COc1ccc(/C=C2/C(=O)NN(c3ccc(F)cc3)C2=O)cc1OC | 0.7
Cc1ccnc(NC(=O)Cc2ccc(Cl)cc2)c1 | 7.6
COc1ccc([N+](=O)[O-])cc1N(CC(O)CN1CCCCC1)S(=O)(=O)c1ccc(C)cc1 (stereo not given) | -8.5
O=C(c1ccccc1F)N1CCN(c2ccc(C(F)(F)F)cc2[N+](=O)[O-])CC1 | 8.9
O=S(=O)(c1ccc2c(c1)Cc1cc(S(=O)(=O)n3cnc4ccccc43)ccc1-2)n1cnc2ccccc21 | 15.9
Clc1cccc(/C=N/N2CCN(Cc3cccc4ccccc34)CC2)c1Cl | -10.9
CC1(C)CC(=O)C=C(Nc2nc(-c3ccccc3)cs2)C1 | -1.5
COCCCNC(=O)CN(c1ccc(F)cc1)S(=O)(=O)c1ccccc1 | 0.6
O=S(=O)(Nc1cccc(C(F)(F)F)c1)c1ccc(F)cc1 | -3.3

Structure (SMILES) | displacement [%]
CC(Oc1ccc(Cl)cc1Cl)C(=O)Nc1nc(-c2ccc(F)cc2)cs1 (stereo not given) | 4.1
Cc1cccc(C(=O)N2N=C(c3ccc(Cl)cc3)CC2(O)C(F)(F)F)c1 (stereo not given) | -5.2
Cc1cc([N+](=O)[O-])nn1C(=O)c1nn(C)cc1Br | 0.4
O=C(/C=C/c1ccccc1)C1=C(O)C(=O)N(c2ccccc2)C1c1cccc([N+](=O)[O-])c1 (stereo not given) | 1.9
Fc1ccccc1OCCCCn1ccnc1 | 11.1
O=C(CCN1C(=O)c2ccccc2C1=O)Nc1cccnc1 | -3.5
CCCC(=N)C1=C(O)CC(C)(C)CC1=O | 6.6
NS(=O)(=O)c1ccc(NS(=O)(=O)c2ccc(Br)cc2)cc1 | 12.9
CN1CCN(/N=C/c2cccs2)CC1 | -0.3
CN1CCN(C(=O)CCN2C(=O)/C(=C/c3cccs3)SC2=S)CC1 | 0.2
COc1ccc(CN(CCC(c2ccccc2)C2CCOC(C)(C)C2)C(C)=O)cc1 (stereo not given) | -3.4
COc1ccc(C2CC(c3ccc([N+](=O)[O-])cc3)=NN2C(=O)c2ccccc2)cc1OC (stereo not given) | 13.6
COCCCNC(=O)CN(c1cc(C)cc(C)c1)S(=O)(=O)c1ccccc1 | -9.8
Cc1ccccc1-c1n[nH]c(=S)n1C | -8.4
Cc1ccc(-c2nc3sc4c(c3c(=O)[nH]2)CCCC4)cc1[N+](=O)[O-] | -32.4
Cc1ccc(CC2CC2(Cl)Cl)c([N+](=O)[O-])c1 (stereo not given) | 9.6
O=C(NNC(=O)C12CC3CC(CC(C3)C1)C2)c1ccco1 | 5.7
Cc1ccc(S(=O)(=O)N2CCN(S(C)(=O)=O)C2C(C)C)cc1 (stereo not given) | 0.4
CN(C)CCCNC(=O)c1ccc([N+](=O)[O-])cc1 | 0
Fc1ccccc1COc1ccccc1/C=N/n1cnnc1 | 1.6
Cc1nnc(Nc2cccc(O)c2)c2ccccc12 | -2.3
CC(=O)NCCN=Cc1cc2n(c1O)-c1ccccc1C2=O | 167
COc1ccccc1NCC(=O)N/N=C/c1cc(Br)cs1 | -2.5
Cc1nc2c(c3c1[nH]c1ccccc13)/C(=N\O)CC(C)(C)C2 | -9.7
COc1ccc(CCNC(=O)CC(=O)N/N=C/c2ccco2)cc1OC | 9.3
Cn1/c(=N/N=C/c2ccc(O)cc2O)sc2ccccc21 | 10.3
O=C(Nc1cccc(-c2nnc(-c3ccccc3)o2)c1)c1cccs1 | 2
